Measurements taken from the supplement of paper PMC4604168 (melanoma cell lines).
This is one part of the list. Most values come without repeats; read them as rough.

What was measured:
Test in all cases: cell count relative to DMSO control; melanoma cells; higher = more viable cells
Conditions in all cases: library dose: standard library concentration; 72 h
[1] = system: G361
[2] = system: IPC-298
[3] = system: IST-MEL1
[4] = system: LB2518-MEL
[5] = system: LOXIMVI
[6] = system: MEL-HO
[7] = system: MZ2-MEL
[8] = system: MeWo
[9] = system: RPMI7951
[10] = system: RVH-421
[11] = system: SkMel28
[12] = system: SkMel2
[13] = system: SkMel30
[14] = system: SkMel5
[15] = system: UACC257
[16] = system: UACC62
[17] = system: WM115
[18] = system: WM1716
[19] = system: WM1745
[20] = system: WM3526
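Also: cells treated in 1,536-well plates, then fixed and DAPI-stained, with nuclei counted from automated high-throughput microscope images.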

SMILES	cell count [1]	cell count [2]	cell count [3]	cell count [4]	cell count [5]	cell count [6]	cell count [7]	cell count [8]	cell count [9]	cell count [10]	cell count [11]	cell count [12]	cell count [13]	cell count [14]	cell count [15]	cell count [16]	cell count [17]	cell count [18]	cell count [19]	cell count [20]
C#Cc1cccc(Nc2ncnc3cc(OCCOC)c(OCCOC)cc23)c1 [erlotinib] + COC(=O)c1sccc1S(=O)(=O)Nc1ccc(Nc2ccccc2)cc1OC [GSK0660] (first compound 4 µM, partner dose 5 µM)	83.5%	64.8%	94.4%	65.4%	101%	87.2%	75.7%	74%	57.7%	75.5%	66.7%	93.7%	68.6%	66.6%	80.7%	81.4%	68%	76.1%	63.9%	63.2%
Nc1cccc2c1CN(C1CCC(=O)NC1=O)C2=O (stereo not given) [lenalidomide] + CC(C)CCN1c2nc(Nc3cc(F)c(O)c(F)c3)ncc2N(C)C(=O)C1C [BID1870] (first compound 5 µM, partner dose 1 µM)	57%	77.3%	83.9%	98.5%	77.3%	78.1%	92.1%	72.7%	77.7%	82.3%	54%	80.7%	75.3%	66.8%	97%	90.6%	84.7%	94.6%	89.7%	65.2%
Nc1cccc2c1CN(C1CCC(=O)NC1=O)C2=O (stereo not given) [lenalidomide] + Cc1ccc(NC(=O)c2cccc(N(C)C)c2)cc1NC(=O)c1ccc(O)cc1 [ZM336372] (first compound 5 µM, partner dose 10 µM)	105%	104%	96.6%	101%	125%	87.2%	115%	87.9%	110%	130%	132%	101%	103%	96.9%	88.6%	92.3%	101%	115%	76%	90.8%
O=C(CCCCCCC(=O)Nc1ccccc1)NO [vorinostat] + CN(NC(=O)CC(=O)NN(C)C(=S)c1ccccc1)C(=S)c1ccccc1 [STA4783] (first compound 0.4 µM, partner dose 0.03 µM)	23.3%	69.3%	37.8%	23%	35.9%	83.8%	99%	20.1%	54.2%	53.8%	5.26%	40.9%	101%	55.7%	78.3%	42.9%	22.7%	72.5%	34.1%	84.2%
Nc1cccc2c1CN(C1CCC(=O)NC1=O)C2=O (stereo not given) [lenalidomide] + COc1ccc(COc2ccc(Cc3cnc(N)nc3N)cc2OC)cc1 [GW2580] (first compound 5 µM, partner dose 5 µM)	82.1%	88.9%	99.6%	89.9%	85%	98.4%	101%	84.5%	80.2%	111%	74.1%	82.6%	80.6%	61.6%	79%	79.5%	92.9%	84.4%	74.1%	87.8%
COCC[n+]1c2c(n(Cc3cnccn3)c1C)C(=O)c1ccccc1C2=O + Oc1cc(-c2nc(-c3ccccc3)[nH]c2-c2ccncc2)ccc1Cl [L779450] (first compound 0.002 µM, partner dose 1 µM)	56.3%	48.2%	53%	25.5%	79.2%	76.1%	22.2%	51.9%	33.6%	87.2%	39.5%	8.94%	56.9%	37.8%	25.4%	64.2%	47.6%	75.4%	58.5%	28.7%
Clc1ccc(Nc2nnc(Cc3ccncc3)c3ccccc23)cc1 [vatalanib] + Cc1ccc(NC(=O)c2cccc(N(C)C)c2)cc1NC(=O)c1ccc(O)cc1 [ZM336372] (first compound 10 µM, partner dose 10 µM)	77.7%	68.9%	72.2%	85.6%	67.7%	55.6%	62.4%	72.5%	75.6%	75.6%	61.9%	80.3%	98.4%	64.9%	84.7%	89.4%	107%	110%	37.6%	78.7%
Clc1ccc(Nc2nnc(Cc3ccncc3)c3ccccc23)cc1 [vatalanib] + OCCn1cc(-c2cnc3nnn(Cc4ccc5ncccc5c4)c3n2)cn1 [PF04217903] (first compound 10 µM, partner dose 5 µM)	86.5%	83.9%	73.9%	87.8%	81.6%	73.8%	86.3%	75.9%	60.7%	71.9%	87.5%	80.2%	86.4%	60.2%	61%	76.2%	81.6%	69.7%	48.1%	72%
Nc1cccc2c1CN(C1CCC(=O)NC1=O)C2=O (stereo not given) [lenalidomide] + COc1cc(N2CCC(N3CCN(C)CC3)CC2)ccc1Nc1ncc(Cl)c(Nc2ccccc2S(=O)(=O)C(C)C)n1 [NVP-TAE684] (first compound 5 µM, partner dose 0.4 µM)	75%	90.1%	98.5%	92.7%	106%	78.5%	84.8%	75.8%	78%	88.9%	82.1%	77.1%	111%	65.2%	79%	97.3%	80.4%	82.7%	29.6%	79.6%
OCc1c[nH]c2ccccc12 [Indole-3-carbinol] + C[C@@H]1CCN(C(=O)CC#N)C[C@@H]1N(C)c1ncnc2[nH]ccc12 [CP690550] (first compound 4 µM, partner dose 5 µM)	106%	115%	107%	106%	115%	100%	122%	85%	95.4%	95.5%	143%	97.6%	123%	78.6%	107%	118%	109%	97.4%	77.5%	101%
Nc1cccc2c1CN(C1CCC(=O)NC1=O)C2=O (stereo not given) [lenalidomide] + C=CCn1c(=O)c2cnc(Nc3ccc(N4CCN(C)CC4)cc3)nc2n1-c1cccc(C(C)(C)O)n1 [MK1775] (first compound 5 µM, partner dose 0.1 µM)	101%	105%	86.6%	73.3%	75.7%	101%	118%	74.5%	71.7%	85.5%	53.1%	82.5%	82.8%	58.2%	88.4%	69.2%	67.6%	79.1%	42.9%	94.5%
OCc1c[nH]c2ccccc12 [Indole-3-carbinol] + COc1cc(Nc2ncc(F)c(Nc3ccc4c(n3)NC(=O)C(C)(C)O4)n2)cc(OC)c1OC [Tamatinib] (first compound 4 µM, partner dose 2 µM)	84.4%	86.1%	78.3%	81.4%	33.3%	78.7%	63.6%	68.3%	49.5%	95.8%	110%	72.2%	89.6%	46.4%	78.9%	85.4%	66.5%	85.6%	37.9%	78.5%
O=C(CCCCCCC(=O)Nc1ccccc1)NO [vorinostat] + CC(C)CCN1c2nc(Nc3cc(F)c(O)c(F)c3)ncc2N(C)C(=O)C1C [BID1870] (first compound 0.4 µM, partner dose 1 µM)	68.1%	62%	84.2%	83.4%	61%	69.1%	96.5%	61.4%	61.3%	83.7%	43.3%	70.3%	86%	70.1%	71.1%	66%	86.9%	76.4%	102%	67.6%
COCC[n+]1c2c(n(Cc3cnccn3)c1C)C(=O)c1ccccc1C2=O + Cn1nnc2c(C(N)=O)ncn2c1=O [temozolomide] (first compound 0.002 µM, partner dose 10 µM)	82.5%	48.9%	50%	22.4%	45.9%	94.6%	26.3%	31.7%	34.1%	100%	31.8%	39.1%	54.4%	28.2%	25.8%	42.9%	65.4%	51.5%	106%	35.2%
OCc1c[nH]c2ccccc12 [Indole-3-carbinol] + COc1cc2c(Oc3ccc4[nH]c(C)cc4c3F)ncnc2cc1OCCCN1CCCC1 [cediranib] (first compound 4 µM, partner dose 2 µM)	82.5%	112%	103%	92.8%	77.5%	110%	97.3%	91.3%	75%	89.6%	113%	90.1%	90.8%	71.1%	111%	98.2%	101%	115%	64.3%	79%
C#Cc1cccc(Nc2ncnc3cc(OCCOC)c(OCCOC)cc23)c1 [erlotinib] + COc1ccc(COc2ccc(Cc3cnc(N)nc3N)cc2OC)cc1 [GW2580] (first compound 4 µM, partner dose 5 µM)	73.2%	63.6%	92.3%	93.8%	101%	77.6%	79.9%	79.3%	65.8%	93.5%	74.5%	89.6%	69.1%	56.6%	98%	70.9%	89.5%	92.5%	57.9%	70.2%
Nc1cccc2c1CN(C1CCC(=O)NC1=O)C2=O (stereo not given) [lenalidomide] + c1cc(-c2cnn3cc(-c4ccc(OCCN5CCCCC5)cc4)cnc23)ccn1 [Dorsomorphin] (first compound 5 µM, partner dose 2 µM)	60.2%	92.8%	94.6%	68.5%	111%	96.2%	76.2%	81.1%	84.5%	101%	96.4%	89.5%	109%	72.2%	82.7%	75.6%	62.3%	83.7%	60.4%	91.1%
C#Cc1cccc(Nc2ncnc3cc(OCCOC)c(OCCOC)cc23)c1 [erlotinib] + O=S(=O)(c1ccccc1)N(CC(F)(F)F)c1ccc(C(O)(C(F)(F)F)C(F)(F)F)cc1 [T0901317] (first compound 4 µM, partner dose 7 µM)	57.2%	64.2%	83%	69.2%	70.8%	77.1%	78.9%	67.9%	64.5%	94.5%	63%	82.3%	80.8%	46%	71.3%	50.9%	80.2%	85%	48.9%	67.1%
